The values below come from patent US20130202594A1 (published 2013).

In the test the target is T1, recombinant human BMP10 (human, UniProt O95393 317-424).
T1 sequence (looked up): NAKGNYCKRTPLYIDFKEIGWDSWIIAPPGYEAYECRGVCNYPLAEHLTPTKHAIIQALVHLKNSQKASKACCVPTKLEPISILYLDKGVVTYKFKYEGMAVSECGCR
Nature of the test: cell-based or functional assay.

Bounds are passed on as bounds.

B1: hALK1-Fc (extracellular domain of human ALK1 fused to a human Fc domain with a minimal linker) (Fc fusion)
chain: not shown
notes: also called human ALK1-Fc fusion protein; hALK-Fc
As for B1, the “firefly luciferase reporter (Smad1/5/8-responsive) relative to Renilla in T98G cells transfected with full-length ALK1; hALK1-Fc 65 ng/ml with BMP10 1 ng/ml” value was above 80 % reduction.
